# Test results as given in PubChem BioAssay (NCATS).
# Where “and” joins values, the source holds several entries; their conditions need not be identical. Identical values can stand only once. Some of the results follow. Further columns of the screen follow, without active or inactive calls. Compounds called inactive in the main read-out are mostly missing here.
# Assay: qHTS Assay for Lipid Storage Modulators (AID 1519)
# Conditions: Drosophila S3 cells, BODIPY lipid droplet/cell ratio, laser cytometry; measured here: lipid channel max response; cells loaded with oleic acid
# How it was run: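 Cells seeded at 5,000 per well were treated with compounds over a concentration series and loaded with oleic acid (400 uM, as added). Lipid droplet fluorescence (488 nm excitation, 500-530 nm channel) was read by laser-scanning cytometry and normalized to 20 uM Triacsin C.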
row,SMILES,max response
1,O=c1c(-c2cccs2)nc2cnc(Oc3ccccc3)nc2n1-c1ccccc1,-2.57%
2,O=[N+]([O-])c1cccc2cn[nH]c12,127% and 53.5%
3,COc1cccc(-c2oc3ccccc3c(=O)c2O)c1,70.5%
4,N#CCCn1c(=O)c(-c2ccc(F)cc2)nc2cnc(Oc3ccccc3)nc21,26.9%
5,COc1ccc2[nH]cc(CCNc3cc(-c4ccccc4CN(C)C)ncn3)c2c1,41.6%
6,COc1cccc(Nc2ncc3ncc(=O)n(CCC#N)c3n2)c1,14.3%
7,NC(=O)c1ncn([C@@H]2O[C@H](CO)[C@@H](O)[C@H]2O)c1O,46.8%
8,COc1ccc(Oc2ncc3ncc(=O)n(-c4ccc(OC)cc4)c3n2)cc1,23%
9,COc1ccccc1-c1ccc2ncnc(NCc3cccnc3)c2c1,-30.6%
10,COc1ncc2nc(-c3ccc(Cl)cc3)c(=O)n(Cc3cccs3)c2n1,13.8%
11,COCCNc1nc(-c2ccccc2C(F)(F)F)nc2ccccc12,12.5%
12,CN(C)C(=O)c1ccc(-c2nc(Nc3ccncc3)c3ccccc3n2)cc1,-14.1%
13,O=c1[nH]cnc2c1ncn2C1CC(O)C(CO)O1 (stereo not drawn),19%
14,CC(=O)OCC(=O)[C@@]1(O)CCC2C3CCC4=CC(=O)CC[C@]4(C)C3C(=O)C[C@]21C (stereo partly drawn),39.2%
15,CC(C)NC(=O)N1CCCC2(CCN(C(=O)c3ccco3)CC2)C1,18.5%
16,O=C(Nc1ccccc1)N1CC2(CCN(C(=O)c3cc(C(F)(F)F)cc(C(F)(F)F)c3)CC2)C1,32.2%
17,CN1CCN(c2ncc3ncc(=O)n(CCc4ccccc4)c3n2)CC1,34%
18,COCCNc1ncnc2ccc(-c3c(C)noc3C)cc12,-0.571%
19,CCOc1ccc(Cc2nccc3cc(OCC)c(OCC)cc23)cc1OCC,-30.2%
20,COc1ccc(-n2c(=O)c(C)nc3cnc(N4CCNCC4)nc32)cc1,31.1%
21,CC(=O)N1CCC2(CC1)CCN(c1ccccc1)CC2,36.8%
22,COc1ccc(C(=O)N2CCC3(CCCN(C(=O)NC(C)C)C3)CC2)cc1,33%
23,O=C(c1csnn1)N1CCC[C@@]2(CCN(Cc3ccccc3)C2)C1,36.4%
